# The campaign covered roughly 94,000 compounds. About 6,200 (6.6%) were called active. Inconclusive results, whose numbers are uncertain, are shown with a selection of clear calls. Calls come from the whole dose curve; as a rule, active = well fitted inhibition curve with a large enough effect; inconclusive = small, poorly fitted or top-dose-only effect; inactive = flat fitted curve, though single readings scatter. A potency beside an inconclusive call is a rough fit, not a confirmed value.
# Experiment: Cytotoxic Profiling in HEK 293 Cell Line of Diverse Libraries Using Quantitative High-Throughput Screening; note: nearly all actives have a fitted effect of over 60% in size
# Settings: HEK 293 viability, ATP luminescence (CellTiter-Glo), 48-72 h; series mostly up to 115 µM
# Procedure, shortened: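 Luminescence from cellular ATP, measured with CellTiter-Glo, indicates HEK 293 viability. Cells plated at 250 cells/well are treated with compound for 48 or 72 hr at 37 degree Celsius before reagent addition.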
# Potency is the fitted concentration of half-maximal effect; tags give direction and shape of the fitted curve.
row,Structure (SMILES),Potency
1,CC(C)c1nc2c(c(-c3ccc(Cl)cc3)n1)CN(C(=O)C1CC1)CC2,inactive
2,COc1cccc(C(=O)N2CC(=O)N(Cc3ccc(Cl)cc3)CC(O)C2)c1 (stereo unspecified),"inconclusive: 79.4 µM [inhibitor, partial curve, poor fit]"
3,CC1Oc2ccc(NC(=O)c3cccs3)cc2CN(CCOc2ccccc2)C1=O (stereo unspecified),active: 39.8 µM
4,O=C1NCc2ccccc2CC12CCN(Cc1cccc(Cl)c1)CC2,"inconclusive: 79.4 µM [inhibitor, partial curve]"
5,O=C(c1ccccc1)N1CCC2(CC1)CN[S+](=O)([O-])c1cccnc1O2,inactive
6,COC(=O)CNC(=O)C1CCc2nnc(C3CCN(C(=O)c4ccccc4)CC3)n21 (stereo unspecified),inactive
7,CCCNC(=O)N1CCC2(CC1)N(c1ccccc1)C(=O)CS2=O (stereo unspecified),inactive
8,Cc1ccc(CNC(=O)Cn2cccc2-c2nc(-c3ccc4c(c3)OCO4)no2)cc1,"inconclusive: 79.4 µM [inhibitor, partial curve, poor fit]"
9,COc1ccc(CNC(=O)CNC(=O)c2cccc(-c3ccsc3)c2)cc1,"inconclusive: 44.7 µM [inhibitor, partial curve, poor fit]"
10,N#Cc1ccc(C(=O)N2CCCCC2c2nc(CCOCC3CCOCC3)no2)cc1 (stereo unspecified),"inconclusive: 100 µM [inhibitor, single point]"
11,c1cncc(-c2cnc([C@@H]3COCCN3Cc3cnc4ccccc4c3)[nH]2)c1,inactive
12,CC1(C)[C@H]2CC[C@@H](CNC(=O)c3ccc(F)cc3)[C@@H]1C2,"inconclusive: 100 µM [inhibitor, partial curve, poor fit]"
13,Cc1nn2c(c1-c1ccccc1Oc1ccccc1)N(CC1CCOCC1)CCC2,"inconclusive: 63.1 µM [inhibitor, partial curve, poor fit]"
14,O=C1CO[C@H]2CCN(CCCc3ccccc3)CC[C@@H]2N1Cc1ccccc1,"inconclusive: 112 µM [inhibitor, partial curve, poor fit]"
15,CC(C)NC(=O)N[C@H]1CCN2C(=O)c3cc(-c4ccc(F)cc4F)ccc3NC(=O)[C@H]12,"inconclusive: 112 µM [inhibitor, partial curve, poor fit]"
16,COc1ccc(-c2cc(C(=O)N(C)C)c3cnn(C)c3n2)cc1,inactive
17,O=C(NC1CCN(c2ccc3nnc(-c4ccccc4)n3n2)C1)c1ccc(Cl)nc1 (stereo unspecified),"inconclusive: 79.4 µM [inhibitor, partial curve, poor fit]"
18,CCN(Cc1noc(C)n1)C(=O)C1CCC(=O)N(Cc2cccc(F)c2)C1 (stereo unspecified),inactive
19,CCn1ccc(C(=O)N2CCC(Oc3ccccc3-c3nc(C)no3)C2)n1 (stereo unspecified),inactive
20,Cc1cccc(C(=O)N2C(C(=O)NCc3ccco3)COC23CCN(C(=O)CC(C)(C)C)CC3)c1 (stereo unspecified),"inconclusive: 100 µM [inhibitor, single point]"
21,Cn1ncc2c(C(=O)NCCc3cccc(F)c3)cc(-c3ccccc3C(F)(F)F)nc21,active: 39.8 µM

row,Structure (SMILES),Potency
1,Cc1ccc(CN2CCCCCCNC(=O)CC2c2ccccc2)o1 (stereo unspecified),"inconclusive: 44.7 µM [inhibitor, partial curve, poor fit]"
2,COc1ccc(NC(=O)N2CC(Oc3ccc(-c4nc(-c5ccccc5)no4)cc3)C2)cc1,"inconclusive: 7.94 µM [inhibitor, full curve, poor fit]"
3,CC(=O)NCC(=O)N1CCCn2cc(-c3ccccc3)nc21,"inconclusive: 89.1 µM [inhibitor, single point]"
4,O=C(NCC1CCCN(C(=O)N2CCCC2)C1)c1ccc(-c2ccccc2)cc1 (stereo unspecified),"inconclusive: 39.8 µM [inhibitor, partial curve, poor fit]"
5,N#Cc1cccc(NC(=O)O[C@@H]2CO[C@H]3[C@@H]2OC[C@@H]3n2nnnc2SC2CCCC2)c1,inactive
6,Cn1ncc2c(C(=O)NCc3ccccc3)cc(-c3cccc(F)c3)nc21,active: 39.8 µM
7,COC(=O)c1ccc(CN2C(=O)[C@@H]3C[C@@H](O)CN3C3(CN(C4COC4)C3)C2=O)cc1,inactive
8,O=C(Cn1ccn2nc(-c3ccccc3)c(CO)c2c1=O)N1CCN(c2ccccc2F)CC1,"inconclusive: 70.8 µM [inhibitor, partial curve]"
9,COc1cccc([S+](=O)([O-])N2CCn3c(nn(-c4cccc(Cl)c4)c3=O)C2)c1,"inconclusive: 79.4 µM [inhibitor, single point]"
10,COCCNC(=O)c1cn2cc(-c3ccc(C(F)(F)F)cc3)sc2n1,"inconclusive: 79.4 µM [inhibitor, partial curve, poor fit]"
11,O=C([C@@H]1C[C@H](F)CN1S(=O)(=O)c1ccc(Cl)s1)N1CCCCC1,inactive
12,O=C(NCc1cccc(C(F)(F)F)c1)[C@H]1CN(Cc2ccccc2)C[C@H]1C(=O)O,"inconclusive: 56.2 µM [inhibitor, partial curve, poor fit]"
13,O=C(Nc1ccc(F)cc1)c1ccc2ccnn2c1,"inconclusive: 100 µM [inhibitor, partial curve]"
14,Cc1ccc(C(=O)N2CCC(N3C(=O)c4c(c(C)nn4-c4ccccc4)C3C)CC2)cc1 (stereo unspecified),"inconclusive: 79.4 µM [inhibitor, partial curve]"
15,Cc1cccc(S(=O)(=O)Nc2cccn3nc(C4CCC4)nc23)c1,"inconclusive: 79.4 µM [inhibitor, partial curve]"
16,Cc1nc2scc(CC(=O)N3CCCC3)n2c(=O)c1-c1cc(C)n(-c2ccc(C(C)C)cc2)n1,"inconclusive: 89.1 µM [inhibitor, single point]"
17,O=C(NC[C@H]1O[C@H](Cc2cc(COc3ccccc3)on2)CC[C@@H]1O)C1CCC1,"inconclusive: 126 µM [inhibitor, single point]"
18,CN(C)S(=O)(=O)N1CCCC(c2nc(-c3cnccn3)no2)CCNC(=O)CC1 (stereo unspecified),inactive
19,Cc1ccc(-c2cc(-c3ccncc3)c3cncn3c2)cn1,"inconclusive: 35.5 µM [inhibitor, partial curve, poor fit]"
20,CC(=O)c1sccc1-c1cc(NCc2ccccn2)nc2[nH]ccc12,"inconclusive: 79.4 µM [inhibitor, single point]"
